The % Inhibition is the drop in the measured response relative to a control, in per cent.

Out of some 150,000 compounds screened, about 540 (0.36%) showed an effect of 50% or more. The list shows a part of the results.

The test system of the assay is Plasmodium falciparum. The assay can be described thus: Primary screen in NF54 nanoGlo assay, in single point, at 2uM, 72h; a lower Z score goes with more inhibition. The assay is classed as functional, Erythrocyte. Conditions: timepoint 72 hour.
Turning to `Cc1nc([C@H]2CCC(=O)N(C3CCCC3)C2)n(CC(F)(F)F)n1`, the “% Inhibition” value is recorded as -3% and the Z score is reported as 0.56.

With `CC(C)(C)OC(=O)N[C@@H](CC(=O)OCCc1ccc(F)cc1)C1CC1`, the “% Inhibition” value is -6% and the Z score was found to be 1.04.

Turning to `COc1ccc(NC(=O)Cn2ccn3nc4c(c3c2=O)CCCCC4)cc1Cl`, the “% Inhibition” value was -6% and the Z score amounted to 0.76.

Regarding `COc1ccc(N2CCN(C(=O)c3cc(C)nc4c(C)cc(C)cc34)CC2)cc1`, the “% Inhibition” value turned out to be 2% and the Z score is given as -0.33.

For `O=C1CC[C@H](COc2ncccc2Br)N1`, the “% Inhibition” value is on record as -11% and the Z score turned out to be 1.43.

As for `CC[C@H](C)NC(=O)CCNCC=Cc1ccco1`, the “% Inhibition” value is recorded as 5% and the Z score was -0.62.

Turning to `C[C@@H](CN(C)c1nccc(C2CCCC2)n1)N1CCOCC1`, the “% Inhibition” value is -6% and the Z score worked out at 1.14.

As for `C[C@@H]1OCCO[C@@H]1C(=O)N(CC1CCCCC1)c1ccccn1`, the “% Inhibition” value was determined as 1% and the Z score is -0.26.

Consider `NC(=O)[C@H](CNC(=O)NCC(F)(F)F)Cc1ccccc1Cl`, for which the “% Inhibition” value worked out at 3% and the Z score is given as -0.43.

For `CCn1nc(C)c(-c2cc(C(=O)NCCN(C(C)=O)C3CCOCC3)no2)c1C`, the “% Inhibition” value stood at 2% and the Z score is -0.29.

As to `Cc1ccc(N2C(=O)CN(C(C)c3ccccc3)[C@H]3CS(=O)(=O)C[C@H]32)cc1` (some centres not stated), the “% Inhibition” value is -7% and the Z score was found to be 1.09.

As to `O=C(NCCc1ccoc1)C(=O)NCC(F)(F)F`, the “% Inhibition” value is -7% and the Z score is on record as 1.11.

Regarding `NC(=O)c1cc(-c2cnc3ccccc3c2)cs1`, the “% Inhibition” value is on record as -5% and the Z score was 0.68.

In the case of `Cc1ccc(S(=O)(=O)NCCc2nc(-c3ccc(-c4csc(C)n4)cc3)no2)cc1`, the “% Inhibition” value is recorded as -18% and the Z score is listed as 1.8.

Consider `C[C@H]1CN(C(=O)Nc2cccc(-c3cscn3)c2)CCCO1`, for which the “% Inhibition” value was -13% and the Z score is reported as 1.91.

`CN(Cc1ccccn1)c1ccnc2cc(F)cnc12`: the “% Inhibition” value is 5% and the Z score is listed as -0.61.

Turning to `CCCn1nc(C)cc1CN(C)C(=O)[C@@H]1CC2(CN(Cc3ccccc3)C2)CN1C`, the “% Inhibition” value is listed as -6% and the Z score is reported as 0.69.

With `CCCN(Cc1c(C)nn(-c2ccccc2)c1Oc1ccc(Cl)cc1)C(=O)c1cccc(F)c1`, the “% Inhibition” value was -9% and the Z score amounted to 1.27.

Regarding `COCC(C)(C)NC(=O)CCc1ccc(N(C)C)cc1`, the “% Inhibition” value is 1% and the Z score is given as -0.2.

As to `COCCCN1C(=O)CN(S(=O)(=O)c2ccccc2)C[C@@]1(C)C(=O)NCCC(C)C`, the “% Inhibition” value was found to be 1% and the Z score is -0.14.

`O=C(NCCCn1cncn1)NCC1(c2ccccc2)CC1`: the “% Inhibition” value was -2% and the Z score was found to be 0.2.

For the compound `Cc1ccc(C2(c3ccc(C)cc3)O[C@@H](c3ccccc3Cl)Nc3ccccc32)cc1`, the “% Inhibition” value is listed as -3% and the Z score amounted to 0.42.

For the compound `COc1ccc2c(c1)CCc1c(C(=O)Nc3cccc(CCc4nc5ccccc5[nH]4)c3)n[nH]c1-2`, the “% Inhibition” value is on record as 3% and the Z score is -0.3.

As to `N#CC1(C#N)CC(C(=O)c2ccccc2)C(c2ccccc2)C(C(=O)c2ccccc2)C1` (configuration not stated), the “% Inhibition” value came to 7% and the Z score was -0.86.

Regarding `Cn1nccc1CNC(=O)c1ccccc1COc1ccc(F)cc1F`, the “% Inhibition” value is reported as -8% and the Z score was determined as 1.07.

Turning to `Oc1ccccc1-c1cc(-c2ccccc2)nn1Cc1ccc(Cl)cc1`, the “% Inhibition” value is reported as 8% and the Z score is reported as -0.85.

`O=C(N[C@@H](Cc1ccccc1)c1nc(-c2ccc3c(c2)OCO3)no1)c1cccs1`: the “% Inhibition” value is listed as 3% and the Z score is -0.36.

Turning to `Nc1cc(Cl)c(OC(F)F)c(Cl)c1`, the “% Inhibition” value is listed as -10% and the Z score is 0.89.

As to `O=C(NC(c1ccccn1)[C@H]1C[C@@H](O)C1)c1coc2ccccc12` (some centres not stated), the “% Inhibition” value is listed as -3% and the Z score worked out at 0.63.

For `CC(C)N(Cc1cccc(Cl)c1)C(=O)CNC(=O)Cn1cncn1`, the “% Inhibition” value was -6% and the Z score is given as 0.52.

In the case of `Nc1ncnc2c1[C@@H](c1ccc(Cl)cc1)c1c(ccc3ccccc13)O2`, the “% Inhibition” value is -5% and the Z score was found to be 0.65.

Regarding `CC(C)(C)n1nc(CC(N)=O)nc1-c1cccc(N2CCNC2=O)c1`, the “% Inhibition” value is recorded as 8% and the Z score is recorded as -1.24.

With `NC(=O)CCC1S(=O)(=O)CC(c2ccccc2)CS1(=O)=O` (configuration not stated), the “% Inhibition” value is on record as -17% and the Z score was 2.33.

Turning to `Cc1ccc(CCC(=O)N2C[C@@H](CN3CCN(C)CC3)[C@@H](CO)C2)cc1C`, the “% Inhibition” value is -4% and the Z score stood at 0.73.

As for `O=C(NCc1[nH]nc2c1CCCC2)[C@H]1CCC(F)(F)C1`, the “% Inhibition” value is recorded as -5% and the Z score is recorded as 0.57.

In the case of `CN(Cc1cc(C[C@@H]2C[C@H](NS(C)(=O)=O)C2(C)C)no1)c1ccccc1`, the “% Inhibition” value was 29% and the Z score is listed as -3.29.

On to `Cc1cc(NC(=O)N2CC[C@H](Oc3ccccc3Cl)C2)no1`, for which the “% Inhibition” value was -9% and the Z score came out at 1.45.

For the compound `O=C(NCCOCC(F)(F)F)[C@@H]1C[C@@H]1c1nc2cccnc2[nH]1`, the “% Inhibition” value is reported as -8% and the Z score amounted to 1.57.

In the case of `COC(=O)[C@@H](c1cc(F)c(F)c(F)c1)N(C)CCN1CCCC1=O`, the “% Inhibition” value came out at 1% and the Z score is reported as -0.15.

For the compound `Cc1cc(O[C@H]2CCN(C(=O)c3ccc(S(=O)(=O)N4CCOCC4)cc3)C2)nc(C)n1`, the “% Inhibition” value was determined as 13% and the Z score is reported as -2.

As for `CCCc1cc(C(=O)N2CC[C@@H]3OCc4cccc(c4)Oc4cccc(c4)CC(=O)N(CC)CC(=O)N[C@H]3C2)[nH]n1`, the “% Inhibition” value was -17% and the Z score is recorded as 3.18.

These data come from ChEMBL document CHEMBL4888484, “Replenishing the malaria drug discovery pipeline: Screening and hit evaluation of the MMV Hit Generation Library 1 (HGL1) against asexual blood stage Plasmodium falciparum ,using a nano luciferase reporter read-out” (2022).
